# Measured values from the supplement of paper PMC11417369.
# The other results are listed elsewhere or left out.
# System: PfSIP2 AP2 domain 1 (GST-tagged)
# Test: gcPBM binding intensity (ln(normalized median fluorescence intensity)); higher = stronger DNA binding
# In short: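 GST-fused DNA-binding domains of P. falciparum, expressed in E. coli, were applied at about 25 μg on average for 1 h to an Agilent 4 × 180k array of primer-extended double-stranded 36-bp intergenic genomic probes and negative controls. Binding intensity is the highest Masliner-normalised natural-log median intensity across replicate spots of either probe orientation, measured with Alexa488 anti-GST antibody and a 488 nm scan.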
row,Sequence,gcPBM binding intensity (ln)
1,TAAACATACCTATACACACACACACGCACACGCACA [CACACA_site6372],8.48
2,ATAATATATGAGCAATGTACATATTTCTCATTGCAC [XGTACX_site2253],8.12
3,TTTCTATATTGGCATACATGCAAGAACGAAAAGATT [TGCATGCA_site117],7.09
4,TAAAAATTGCACAGAAGTACAGTATAAATATATATA [XGTACX_site3421],7.39
5,GTTCCAGGCATTCGTGCGCACAAATAGAAACAATTA [GTGCAC_site9824],9.34
6,TTGTGAAACATCAAGAAAAAGAAATAATAAAAAGAA [GTGCAC_negctrl_site38],7.11
7,GTTGAACATATATGCACACACATAAAATAAAAAAAA [CACACA_site2413],7.35
8,TTATATTAATATATATGTACATATATTTTTTTTATA [XGTACX_site6981],6.78
9,AAAAGGTATCCACATACGCACACCAAAAAAAAAAAT [CACACA_site347],7.28
10,TCTTTTTTTTTTTTTTTTTTTTTTTATTTATTCATA [CACACA_negctrl_site1827],6.85
11,ATACAACAATGTGAATTATATATGGATGGAGAATGA [GTGCAC_negctrl_site148],7.1
12,ACGTAAGCGAATAAAAGTACATATATTAAAAAAAAA [XGTACX_site4458],6.9
13,TTCTTAAGGAACGAACGTACAGAATAAAAAGTAAAA [XGTACX_site4294],7.05
14,TTTAAAACCCTAAAAAAAAAAAAAAAAAAAAAAAAA [CACACA_negctrl_site1212],6.9
15,GTTTGTATAGGTTCATGTACAAAAAAAAAAAAAAAA [XGTACX_site537],7.07
16,ATGCATAAAAGAAATACACACATAAATATGTAAATA [CACACA_site7087],6.82
17,ATTCATATGTGACACACACACACACGCATAAAAAAA [CACACA_site7515],7.28
18,TTAAAACATATTTTGAATTAATATATTTTAATATTA [XGTACX_negctrl_site148],6.6
19,TAGCGTACATTTCATTGTAATCATAAAAAATAAAGA [CACACA_negctrl_site447],7.03
20,ACAAAAATATATATATGTACATATATCATCATAATA [XGTACX_site5850],6.95
21,TTTATTAGAACCGTACGTACATAGTTATTTTTTCAA [XGTACX_site8848],7.16
22,TATGCTATAATACTCTGTACTTACTAATTTAATAAT [XGTACX_site5926],6.92
23,TATATATATATATGGGTGCATTTTTTTGTCCATGTA [GTGCAC_site9868],10.7
24,ATAAAATAAATGAAAAATGTAAAATGAGAAAAAAAT [CACACA_negctrl_site1026],7.21
